Test results from patent US20240285780A1 (priority 2020, published 2024).

Columns and labels:
[1] = 1000 ppm in sterile distilled water, 45° C., up to 75 days, HPLC
Method: The peptide of the present invention consisting of the amino acid sequence of SEQ ID NO: 1 was dissolved in sterile distilled water at a concentration of 1000 ppm, and stored at 45° C. for 7 days, 14 days, 28 days, 60 days, and 75 days, and then HPLC analysis was performed.

[2] = 1000 ppm in sterile distilled water, 121° C., up to 30 minutes, HPLC
Method: The peptide of the present invention was dissolved in sterile distilled water at a concentration of 1000 ppm, heated at 121° C. for 15 minutes and 30 minutes, and then HPLC analysis was performed.

KFLIK [peptide of the present invention]
stability of the peptide during storage [1]: maintained | stability of the peptide on heating [2]: maintained
